# Test results from PubChem BioAssay AID504332 (National Center for Advancing Translational Sciences (NCATS), 2011).
# About 31,000 (8.9%) of roughly 350,000 compounds were called active. Inconclusive means that the source gave no clear call. Such entries were picked first, then a sample of the others. Calls come from the whole dose curve; as a rule, active = well fitted inhibition curve with a large enough effect; inconclusive = small, poorly fitted or top-dose-only effect; inactive = no such curve, though single readings can be large or run the other way. Potencies beside an inconclusive call are fits to weak or partial responses and may not hold up. Where a SMILES comes first, the peptide text is derived from it. The star is where a group is joined. Boc = CC(C)(C)OC(=O)*
# Biological target: Histone-lysine N-methyltransferase EHMT2 (Homo sapiens) (UniProt Q96KQ7)
# Sequence of UniProt Q96KQ7 (Q96KQ7 whole entry, looked up): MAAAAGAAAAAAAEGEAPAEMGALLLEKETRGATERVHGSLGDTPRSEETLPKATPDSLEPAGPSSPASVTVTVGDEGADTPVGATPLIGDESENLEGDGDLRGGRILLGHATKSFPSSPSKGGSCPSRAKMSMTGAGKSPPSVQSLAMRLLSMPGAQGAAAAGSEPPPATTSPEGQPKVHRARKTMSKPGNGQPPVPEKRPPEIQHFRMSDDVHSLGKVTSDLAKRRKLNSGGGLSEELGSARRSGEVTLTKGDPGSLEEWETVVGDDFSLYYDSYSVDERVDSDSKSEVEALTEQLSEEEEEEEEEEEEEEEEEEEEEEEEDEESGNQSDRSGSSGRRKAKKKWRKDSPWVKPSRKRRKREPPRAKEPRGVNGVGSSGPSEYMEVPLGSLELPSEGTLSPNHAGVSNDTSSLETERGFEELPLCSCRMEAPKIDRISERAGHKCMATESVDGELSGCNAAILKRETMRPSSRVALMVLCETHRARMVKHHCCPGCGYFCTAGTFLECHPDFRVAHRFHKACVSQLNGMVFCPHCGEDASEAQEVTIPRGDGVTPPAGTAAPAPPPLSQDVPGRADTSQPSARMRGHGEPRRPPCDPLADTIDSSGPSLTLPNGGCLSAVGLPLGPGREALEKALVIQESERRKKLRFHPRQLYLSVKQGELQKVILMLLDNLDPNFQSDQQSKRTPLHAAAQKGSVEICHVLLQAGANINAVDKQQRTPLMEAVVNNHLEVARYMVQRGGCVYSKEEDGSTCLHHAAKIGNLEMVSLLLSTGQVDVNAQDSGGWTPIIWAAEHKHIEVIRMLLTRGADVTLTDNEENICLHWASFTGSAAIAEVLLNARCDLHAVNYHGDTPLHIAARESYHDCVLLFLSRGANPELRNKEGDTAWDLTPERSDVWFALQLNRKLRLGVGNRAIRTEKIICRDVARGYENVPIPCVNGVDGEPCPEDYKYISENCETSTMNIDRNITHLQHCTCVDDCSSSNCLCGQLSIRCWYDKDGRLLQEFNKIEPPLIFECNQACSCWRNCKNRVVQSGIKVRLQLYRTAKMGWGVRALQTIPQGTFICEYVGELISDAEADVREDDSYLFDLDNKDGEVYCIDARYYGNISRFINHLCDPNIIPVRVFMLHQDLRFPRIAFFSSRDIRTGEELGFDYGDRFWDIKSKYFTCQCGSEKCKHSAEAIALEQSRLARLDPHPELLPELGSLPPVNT
# Assay: qHTS Assay for Inhibitors of Histone Lysine Methyltransferase G9a; note: nearly all actives have a fitted effect of over 75% in size
# Settings: G9a H3K9 monomethylation, AlphaScreen, 2 h; activity, negative = inhibition: at 59 µM (top of the series) unless noted
# How it was run: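 Compounds were preincubated with 20 nM G9a for 15 min, after which biotinylated H3K9 peptide (500 nM) and SAM (20 uM) started a 2 h room-temperature reaction. Monomethylated product was quantified by antibody-based AlphaScreen chemiluminescence.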
# % is set by controls: 0 for no effect and ±100 for the full control effect; potency is the fitted concentration of half-maximal effect; tags give direction and shape of the fitted curve.
Compound,Potency,"activity, negative = inhibition"
C=CCNc1nc(C(=O)OCC(=O)c2ccc(OC)cc2OC)cs1,inactive,
O=C(c1ccc(-c2cccc([N+](=O)[O-])c2)o1)N1CCN(c2ccc([N+](=O)[O-])cc2)CC1,"inconclusive: 39.8 µM [inhibitor, partial curve, poor fit]",
O=C(C1CCN(S(=O)(=O)c2ccc(Cl)cc2)CC1)N1CCN(c2ccccn2)CC1,"inconclusive: 7.08 µM [inhibitor, single point]",
CCN1CCN(C(c2ccccc2OC)c2nnnn2C2CCCCC2)CC1 (centres undefined),"inconclusive: 2.24 µM [inhibitor, partial curve, poor fit]",
CCOC(=O)CSc1nc2sccc2c(=O)[nH]1,inactive,
Cc1ccc([N+](=O)[O-])c(C)[n+]1C,active: 3.55 µM,
COc1ccc(CN(CC2CCC(C(=O)O)CC2)C(=S)Nc2cc(Cl)ccc2OC)cc1 (centres undefined),"inconclusive: 31.6 µM [inhibitor, partial curve, poor fit]",
Cc1nnc(-c2cnn(C)c2N)n1Cc1cccc(Cl)c1,"inconclusive: 35.5 µM [inhibitor, single point]",
Nc1nc(-c2cc(-c3ccccc3)no2)cs1,inactive,
O=C(NCC(c1ccco1)N1CCN(c2ccccc2F)CC1)c1ccco1 (centres undefined),"inconclusive: 56.2 µM [inhibitor, partial curve]",
CC(Sc1nc2ccc(C(=O)c3ccccc3)cc2[nH]1)C(=O)O (centres undefined),"inconclusive: 89.1 µM [inhibitor, single point]",
COc1ccc(/C=N/Nc2cc(N3CCOCC3)nc(C)n2)c(OC)c1,inactive,
Cn1c(=O)c2c(nc(SCCN3CCOCC3)n2Cc2cccc3ccccc23)n(C)c1=O,"inconclusive: 22.4 µM [inhibitor, single point]",
O=C(COC(=O)c1cccc(S(=O)(=O)NCc2ccccc2)c1)Nc1ccccc1OC(F)F,"inconclusive: 50.1 µM [inhibitor, partial curve, poor fit]",
Cc1ccc(Cn2c(SCC(=O)NCc3ccccc3Cl)nc3ccsc3c2=O)cc1,inactive,
Cc1cc(S(=O)(=O)N2CCCOC2CNC(=O)C(=O)NCc2cccs2)ccc1F (centres undefined),inactive,
NS(=O)(=O)c1ccc(NCC2COc3ccccc3O2)c([N+](=O)[O-])c1 (centres undefined),active: 50.1 µM,
CCOc1cc(/C=C2/C(=O)NN(c3cccc(Cl)c3)C2=O)ccc1O,active: 31.6 µM,
CC1(C)CC(=O)c2cnc3nc4ccccc4n3c2C1,active: 17.8 µM,
Cc1nc(NC(=O)c2ccc(Br)s2)sc1C(=O)N(C)C,"inconclusive: 17.8 µM [inhibitor, single point]",
CCN(CC)c1cnn(C/C(=N\OC)c2ccc(Cl)cc2)c(=O)c1Br,inactive,
CSc1ccc(C(=S)N2CCCCCC2)cc1,active: 31.6 µM,
CC(C)c1ccc(NS(=O)(=O)c2ccc3[nH]cc(C(=O)NCC4CCCO4)c(=O)c3c2)cc1 (centres undefined),"inconclusive: 31.6 µM [inhibitor, partial curve, poor fit]",

Compound,Potency,"activity, negative = inhibition"
CC1Cc2ccccc2N1S(=O)(=O)c1cccc(C(=O)N2Cc3ccccc3CC2C(N)=O)c1 (centres undefined),"inconclusive: 28.2 µM [inhibitor, single point]",
CCN(C(=O)Cn1nnc(-c2ccccc2)n1)C1CCS(=O)(=O)C1 (centres undefined),"inconclusive: 44.7 µM [inhibitor, partial curve, poor fit]",
COc1ccc(OC)c(NC(=O)CSC2=Nc3ccccc3C3=NC(CC(=O)NCc4ccc(F)cc4)C(=O)N23)c1 (centres undefined),inactive,
Cn1nnnc1Sc1ccc(C(=O)O)cc1[N+](=O)[O-],"inconclusive: 39.8 µM [inhibitor, partial curve, poor fit]",
O=C(OCCNc1nc(-c2ccccc2)nc2ccccc12)c1ccncc1,"inconclusive: 70.8 µM [inhibitor, partial curve]",
C=CCN1C(=O)C(=O)N(Cc2nc3ccccc3s2)C1=O,inactive,
CCC(=O)NC(c1ccc(OC)cc1)c1c(O)ccc2ccccc12 (centres undefined),"inconclusive: 28.2 µM [inhibitor, single point]",
Cc1ccc(C(=O)CN(Cc2ccccc2)C2=NCCS2)cc1,"inconclusive: 89.1 µM [inhibitor, single point]",
S=c1[nH]c2ncccc2o1,"inconclusive: 1.58 µM [inhibitor, partial curve]",
CC(=O)Nc1cccc(N=NN2CCCCC2)c1,active: 22.4 µM,
COC(=O)c1ccccc1NS(=O)(=O)c1cn(C)c(=O)n(C)c1=O,"inconclusive: 28.2 µM [inhibitor, full curve]",
Cc1ccc(NC(=O)N2CCN(c3nnc(C)c4c(C)n(-c5ccc(Cl)cc5)nc34)CC2)c(C)c1,inactive,
O=C(CCN1C(=O)/C(=C/c2ccccc2Cl)SC1=S)NCCCN1CCOCC1,"inconclusive: 50.1 µM [inhibitor, single point]",
CCCCN(C)C(=O)c1nc2ccccn2c1CN1CCC[C@H]1C(=O)OC,inactive,
CC(C(=O)O)c1ccc(C(=O)c2ccccc2)s1 (centres undefined),"inconclusive: 28.2 µM [inhibitor, single point]",
N#CCCN1CCN(C(CNS(=O)(=O)c2ccc(Cl)cc2)c2ccccc2)CC1 (centres undefined),"inconclusive: 39.8 µM [inhibitor, single point]",
N#Cc1c(NC(=O)COC(=O)c2nccnc2N)sc2c1CCCC2,active: 44.7 µM,
CCOC(=O)c1cn(-c2nc(-c3ccc(Cl)c(Cl)c3)cs2)c2c(F)c(N3CCOCC3)c(F)cc2c1=O,"inconclusive: 0.631 µM [inhibitor, full curve]",
O=C(CSc1nc2cc(Cl)ccc2s1)c1ccco1,inactive,
CC1Cc2cc(/C(O)=C3/C(=O)C(=O)N(CCN4CCOCC4)C3c3ccc([N+](=O)[O-])cc3)ccc2O1 (centres undefined),active: 79.4 µM,
COc1ccc(NC(=O)c2cccc(F)c2)cc1Cl,inactive,
C=C(C)CSc1nnc(-c2cccc(Cl)c2)n1N,"inconclusive: 79.4 µM [inhibitor, single point]",
COc1ccc(OC)c(S(=O)(=O)N2CCC(C(=O)NCc3ccccc3)CC2)c1,"inconclusive: 44.7 µM [inhibitor, partial curve, poor fit]",

Compound,Potency,"activity, negative = inhibition"
COc1cc(C(=O)NC2CCN(CC(=O)Nc3cccc(C)c3C)CC2)cc(OC)c1OC,inactive,
Cc1c(NC(=O)c2cccc(NC(=O)Cc3ccc(F)cc3)c2)c(=O)n(-c2ccccc2)n1C,"inconclusive: 1.12 µM [inhibitor, single point]",
COc1ccc(C(=O)Nc2ccc(S(=O)(=O)N3CCCC3)cc2)c(OC)c1,"inconclusive: 79.4 µM [inhibitor, partial curve, poor fit]",
COc1ccc(CN2CCC(C(=O)c3cccc(Cl)c3)CC2)cc1,,inactive: -8.85% [at 0.501 µM]
CC1Oc2ccccc2C=C1/C=N/Nc1ccc(C(=O)O)cc1 (centres undefined),"inconclusive: 79.4 µM [inhibitor, single point]",
CC(C)(C)[C@H]1C=C(C(N)=O)O[C@@H](OCc2ccc(CO)cc2)C1,inactive,
O=[N+]([O-])c1ccccc1S(=O)(=O)n1nnc2ccccc21,"inconclusive: 31.6 µM [inhibitor, single point]",
CC1(C)CC(=O)C=C(c2cccc(O)c2)C1,,inactive: 0.154% [at 2.33 µM]
COc1cc(CCC(=O)Nc2ccc(S(=O)(=O)N3CCCC3)cc2)cc(OC)c1OC,"inconclusive: 0.316 µM [inhibitor, partial curve, poor fit]",
Cc1cccc(NC(=O)CCS(=O)(=O)c2ccc(Cl)cc2)c1,inactive,
CCOC(=O)N1CCC(N2CCN(S(=O)(=O)c3ccc(OC)cc3)CC2)CC1,"inconclusive: 39.8 µM [inhibitor, full curve]",
CN(C)CCCN(C(=O)c1ccc(S(=O)(=O)N2CCc3ccccc3C2)cc1)c1nc2c(F)cccc2s1,inactive,
CCC1(C)NC(=O)N(CC(=O)Nc2sc3c(c2C(N)=O)CCC3)C1=O (centres undefined),"inconclusive: 56.2 µM [inhibitor, partial curve, poor fit]",
O=C(NO)c1cc(OCC(F)(F)F)ccc1OCC(F)(F)F,active: 79.4 µM,
COc1ccc(S(=O)(=O)N2CCOCC2)cc1NC(=O)CCc1cc(OC)c(OC)c(OC)c1,inactive,
CCC(C)C(NC(=O)OC(C)(C)C)C(=O)NC(C(=O)N1CCCC1C(N)=O)C(C)CC (stereo not drawn) (Boc-Ile-Ile-Pro-NH2; configuration not given here),"inconclusive: 89.1 µM [inhibitor, partial curve, poor fit]",
COC(=O)C1=C(C)N(Cc2ccccc2)C(=O)N[C@H]1c1cccc(C(F)(F)F)c1,inactive,
CCOC(=O)c1cccc(NC(=O)CC2C(=O)N(c3ccc(C)cc3)C(=O)N2Cc2cccc(OC)c2)c1 (centres undefined),"inconclusive: 39.8 µM [inhibitor, partial curve, poor fit]",
COC(=O)N1CCCc2cc(S(=O)(=O)N3CCN(c4ccccc4)CC3)ccc21,inactive,
COc1ccc([N+](=O)[O-])cc1N(CC(O)CN(CC(C)C)CC(C)C)S(=O)(=O)c1ccccc1 (centres undefined),"inconclusive: 1.58 µM [inhibitor, full curve, poor fit]",
Cc1ccc(N2CC(C(=O)Nc3ccc(S(=O)(=O)N4CCOCC4)cc3)CC2=O)cc1 (centres undefined),"inconclusive: 39.8 µM [inhibitor, single point]",
O=C(NC(=S)NC1CCSC1=O)c1ccccc1F (centres undefined),"inconclusive: 5.62 µM [inhibitor, full curve]",
COc1ccccc1N1CC(C(=O)NCCN2C(=O)S/C(=C\c3cccnc3)C2=O)CC1=O (centres undefined),,inactive: 2.97% [at 12.7 µM]
